From PubChem BioAssay AID1345083 (National Center for Advancing Translational Sciences (NCATS), 2018)
Several values for one entry are separate records, joined by “and”; a condition that tells them apart may be missing. Equal entries are not always repeated. The campaign covered roughly 94,000 compounds. About 6,200 (6.6%) were called active. Inconclusive means that the source gave no clear call. Such entries were picked first, then a sample of the others. Calls come from the whole dose curve; as a rule, active = well fitted inhibition curve with a large enough effect; inconclusive = small, poorly fitted or top-dose-only effect; inactive = flat fitted curve, though single readings scatter. A potency beside an inconclusive call is a rough fit, not a confirmed value.

Experiment: Cytotoxic Profiling in HEK 293 Cell Line of Diverse Libraries Using Quantitative High-Throughput Screening; note: nearly all actives have a fitted effect of over 60% in size
Details: HEK 293 viability, ATP luminescence (CellTiter-Glo), 48-72 h; activity change, negative = cytotoxicity: at 115 µM (top of the series) unless noted; series mostly up to 115 µM
Procedure, shortened: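 Pintool-delivered compounds were incubated with HEK 293 cells (250 cells/well) at 37 degree Celsius for 48 or 72 hr. ATP-dependent luminescence (CellTiter-Glo) then reported remaining viable cells.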
% is set by controls: 0 for no effect and ±100 for the full control effect; potency is the fitted concentration of half-maximal effect; tags give direction and shape of the fitted curve.

Structure (SMILES)	activity change, negative = cytotoxicity	Potency	outcome
O=C(CCc1nc(C2CCCN2C(=O)c2ccccc2)no1)Nc1ccc(F)cc1F (stereo not given)	inactive: -6.39%		
COc1cc(NC(=O)c2ccc3c(c2)N(C)C2CCCN2C3=O)cc(OC)c1 (stereo not given)		inconclusive: 100 µM [inhibitor, single point]	
CCn1ccc(C(=O)N2CC(c3nc(CCOC)no3)C2)n1	inactive: 0.365%		
Cc1cccc(-c2cccc(CN3CCC(NC(=O)c4ccccc4)CC3)c2)c1		active: 35.5 µM	
C#CCNC(=O)C1CCc2nnc(-c3ccccc3OC)n21 (stereo not given)	inactive: -6.52%		
CCc1nc2c(=O)n(CC(=O)N3CCN(c4ccccc4F)CC3)nc(C)c2s1	inactive: -9.64%		
N#Cc1ccc(C(=O)Nc2ccc([C@H]3OCC(=O)N(Cc4cccnc4)[C@@H]3CO)cc2)cc1		inconclusive: 44.7 µM [inhibitor, partial curve, poor fit]	
COc1cccc(Nc2ncc(-c3c(C)noc3C)c3c2OCC3)c1		inconclusive: 63.1 µM [inhibitor, full curve]	
FC(F)(F)c1ccc(CN2CC[C@H](c3nc4ccccc4[nH]3)C2)cc1		active: 35.5 µM	
CCNC(=O)N[C@H]1C[C@@H](Cc2cc(COc3ccccc3)on2)C1(C)C		active: 89.1 µM	
O=C(Cc1ccc(Cl)cc1)N1CCC(n2cc(-c3nc(-c4ccccc4)no3)nn2)CC1		inconclusive: 31.6 µM [inhibitor, partial curve]	
O=C(NCC1CN(Cc2ccccn2)CC12CN(c1ccccc1)C2)c1ccccc1 (stereo not given)		inconclusive: 79.4 µM [inhibitor, partial curve]	
O=C1Nc2ccccc2CC12CN(Cc1cscn1)C2	inactive: -4.3% [at 172 µM]		
COCCNC(=O)c1ccc(-c2ccc(OC)nn2)cc1		inconclusive: 126 µM [inhibitor, single point]	
Cc1ccc(NC(=O)Cn2c(C)cc3nc4n(c(=O)c32)CCC4)c(C)c1		inconclusive: 89.1 µM [inhibitor, single point]	
CC(C)(C)OCC1CN(Cc2ccccc2)[S+](=O)([O-])c2cccnc2O1 (stereo not given)	inactive: -30.4% [at 57.5 µM]		
COc1ccccc1-c1cn(C)c(=O)n2cc(COc3ccc(C(=O)O)cc3)nc12		inconclusive: 126 µM [inhibitor, single point]	
COc1ccc(CC(=O)NC2CCCN(Cc3ccc(-c4cccc(OC)c4)cc3)C2)cc1 (stereo not given)		active: 25.1 µM	
COc1ccccc1-c1nc2nccc(-c3cc(OC)c(OC)c(OC)c3)n2n1		inconclusive: 50.1 µM [inhibitor, partial curve, poor fit]	
COCCNC(=O)C1CN(c2cccc(OC)c2)C(=O)N1 (stereo not given)	inactive: 3.75% [at 172 µM]		
Cc1cccc(-c2noc([C@@H]3Cc4nc[nH]c4CN3C(=O)Nc3cccc(C#N)c3)n2)c1		active: 89.1 µM	
CN(C)c1cccc(NC(=O)Cn2c3c(c(=O)n2Cc2ccccc2)CCN(Cc2ccccc2)C3)c1		inconclusive: 89.1 µM [inhibitor, single point]	

Structure (SMILES)	activity change, negative = cytotoxicity	Potency	outcome
COc1ccc(CCNC(=O)Cc2ccc(N(Cc3ccccc3)C(=O)c3ccco3)cc2)cc1		inconclusive: 79.4 µM [inhibitor, partial curve, poor fit]	
CCCN1CCC2(Cc3ccccc3CN(C(=O)CCNC(C)=O)C2)C1 (stereo not given)			inactive
Cc1nn2c(c1-c1ccccc1-c1ccccc1)N(CC1CC1)CCC2		active: 2.82 µM	
COc1ccccc1N1CCN([C@H]2[C@@H]3OC[C@@H](O3)[C@@H](NCc3ccc(-c4ccccc4)cc3)[C@@H]2O)CC1		inconclusive: 79.4 µM [inhibitor, partial curve, poor fit]	
Cc1ccc(-c2ccccc2C=O)c(C)c1	inactive: -10.9% [at 287 µM]		
O=C(Nc1ccc(F)cc1)c1cc2n(n1)CC(c1ccc(Br)cc1)OC2 (stereo not given)		inconclusive: 50.1 µM [inhibitor, partial curve, poor fit]	
COc1ccc(CN2C(=O)[C@@H]3C[C@@H](CN3Cc3ccccc3)Oc3ccccc32)cc1		active: 50.1 µM	
O=C(NCc1ccc(C(F)(F)F)cc1)C1CCN(Cc2ccccc2-c2cccnc2)CC1		inconclusive: 50.1 µM [inhibitor, partial curve, poor fit]	
CO[C@H]1C(=O)N(C(C)C)[C@H]1C1CCN(C(=O)c2cccc(C#N)c2)CC1	inactive: -16.1%		
O=C1Nc2ccccc2CC12CCN(Cc1ccccc1C(F)(F)F)C2 (stereo not given)		inconclusive: 50.1 µM [inhibitor, partial curve, poor fit]	
Cc1ccc(-c2nnc3ccc(C(=O)NCc4ccccc4F)cn23)cc1		inconclusive: 89.1 µM [inhibitor, partial curve, poor fit]	
CCCn1cc2c3c(cccc31)CN(C(=O)COc1ccccc1)CC2		inconclusive: 50.1 µM [inhibitor, partial curve, poor fit]	
CN(Cc1ccccc1)Cc1nnc(C(=O)N2CCC[C@@H]2c2cccc(F)c2)n1-c1ccccc1		inconclusive: 50.1 µM [inhibitor, partial curve, poor fit]	
O=C(c1ccc(C(F)(F)F)cc1)N1CCn2c(nn(-c3ccc(F)cc3F)c2=O)C1			inactive
Cc1nn(C)c(C)c1CCC(=O)NCCc1ncc(C)n1Cc1ccc(F)cc1		inconclusive: 79.4 µM [inhibitor, partial curve, poor fit]	
Cc1cc(=O)n(CC(=O)Nc2ccc(C)c(F)c2)c(N(C)Cc2ccccc2)n1		inconclusive: 44.7 µM [inhibitor, partial curve, poor fit]	
c1cnc2nc(-c3c[nH]c4ncccc34)[nH]c2c1		inconclusive: 126 µM [inhibitor, partial curve, poor fit] and inconclusive: 141 µM [inhibitor, partial curve, poor fit]	
CC(=O)Nc1cc(-c2cc(C(=O)NCc3cc(C)on3)c3c(c2)N(C)CCO3)ccn1		inconclusive: 100 µM [inhibitor, partial curve, poor fit]	
O=C(NCc1ccc2c(c1)OCO2)c1ccc2nnc(-c3cc(F)ccc3F)n2c1		inconclusive: 50.1 µM [inhibitor, partial curve, poor fit]	
Cc1cc(C(=O)N2CC(=O)N(C3CCCCC3)CC(OCc3ccccc3)C2)n(C)n1 (stereo not given)	inactive: 2.31%		
CN(C)C(=O)C1CCC(C(=O)N2CCC(c3nc4ncccc4[nH]3)CC2)CC1 (stereo not given)	inactive: 2.07%		
Cc1nc(NC(C)c2nc(-c3cccnc3)no2)c2cccnc2n1 (stereo not given)		inconclusive: 25.1 µM [inhibitor, partial curve, poor fit]	

Structure (SMILES)	activity change, negative = cytotoxicity	Potency	outcome
O=C(NCCc1ccccc1)C1CCc2ncc(-c3ccsc3)n2C1 (stereo not given)		inconclusive: 56.2 µM [inhibitor, partial curve, poor fit]	
COc1ccc(CN2CCCC23Cc2ccccc2N(C(=O)c2ccc(Cl)cc2)C3)cc1 (stereo not given)		inconclusive: 25.1 µM [inhibitor, full curve, poor fit]	
c1ccc(CCN2CCNc3cc(N4CCN(c5ccccn5)CC4)ncc3C2)cc1		active: 50.1 µM	
c1ccc(CCCN2CC[C@H](c3nc4ccccc4s3)C2)cc1		active: 100 µM	
O=C(NC1CCCCC1)N1C2CCC1CN(c1ccc(C(F)(F)F)cc1)C2		inconclusive: 31.6 µM [inhibitor, partial curve, poor fit]	
Cc1ccc(OCC(=O)N2CCC(N3CC4CC(C3)[C@H]3CCCC(=O)N3C4)CC2)cc1 (stereo not given in full)	inactive: 1.03%		
O=C(CC1=CCCCC1)N1C[C@@H](COCC2CC2)[C@H](c2ccncc2)C1		inconclusive: 79.4 µM [inhibitor, partial curve, poor fit]	
CCn1cc(S(=O)(=O)N2CCCN(Cc3ccncc3)C(c3ccccc3)CC(=O)NCC2)cn1 (stereo not given)	inactive: -2.92%		
O=C(Cn1ccc2ccccc2c1=O)N1CCCOC(Cn2cccn2)C1 (stereo not given)	inactive: -5.02%		
NCCC[C@@H](N)C(=O)N1CCCC(c2ccccc2)(c2ccccc2)C1		inconclusive: 35.5 µM [inhibitor, partial curve, poor fit]	
Cc1ccc(-n2nc3n(c2=O)CCN([S+](=O)([O-])c2c(C)noc2C)C3)cc1		inconclusive: 89.1 µM [inhibitor, single point]	
Cc1ccccc1C(=O)N1CCN(CCn2nc3n(c2=O)CCCC3)CC1			inactive
CCC1Oc2ccc(NC(=O)c3cccc(OC)c3)cc2CN(Cc2ccccc2)C1=O (stereo not given)		active: 44.7 µM	
COc1ccc(-c2nc(C3CC3)nc3c2CCN(C(=O)c2ccc4c(c2)OCO4)CC3)cc1		inconclusive: 79.4 µM [inhibitor, single point]	
COCCN1Cc2ccc(NCC(C)C)nc2C(C)(C(=O)Nc2ccc(OC)cc2)C1 (stereo not given)		inconclusive: 70.8 µM [inhibitor, partial curve, poor fit]	
CCN(CC)Cc1cnc2c(C(=O)NC(C)c3ccc(O)cc3)cnn2c1 (stereo not given)		inconclusive: 31.6 µM [inhibitor, single point]	
COCCN1CCNc2cc(Nc3ccc(N4CCOCC4)cc3)ncc2C1	inactive: -27% [at 172 µM]		
O=C(c1cc(-c2ccccc2)n[nH]1)N1CCc2c(nc(-c3ccc(F)cc3)[nH]c2=O)C1		inconclusive: 89.1 µM [inhibitor, single point]	
CCc1cc(=O)n(CC(=O)Nc2cc(OC)c(OC)c(OC)c2)c(N2CCOCC2)n1		inconclusive: 50.1 µM [inhibitor, partial curve, poor fit]	
Fc1ccccc1CN1CCNc2cc(Nc3ccccc3)ncc2C1		active: 112 µM	
COc1ccc(CNC(=O)C[C@@H]2C[C@@H](C(C)C)[C@H](CNC(C)=O)C=C2C)cc1		inconclusive: 100 µM [inhibitor, partial curve, poor fit]	
